# Reference: publication PMC12040169 (PLOS Biology, 2025)
# The list shows a part of the results.
# System: T1, C. trachomatis L2/434/Bu expressing GFP (CTL2-GFP)
# T1 construct: L2/434/Bu GFP intracellular growth in HeLa cells
# Design: species or system HeLa; C. trachomatis total inclusion area by high-content imaging, normalised to DMSO
# Details: total inclusion area; 28.5 h, 10 µM; inhibitor
# Outline: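 After bulk GFP and resorufin fluorescence reads, cells were fixed, stained with Hoechst and imaged by high-content microscopy. Inclusion area and number (GFP) stood in for chlamydial growth, nuclei count (Hoechst) for host cell viability. MICs were derived as for the bulk readout.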
row,Structure (SMILES),% of control remaining
1,CN1CCN(Cc2n[nH]c(=S)n2-c2cccc(C#N)c2)CC1 [CBK015465],103.422
2,O=C(O)c1ccc(S(=O)(=O)NC2CCS(=O)(=O)C2)cc1 (centres unmarked) [CBK262477],92.4179
3,COc1ccc(S(=O)(=O)NCc2ccccn2)cc1NC(C)=O [CBK269554],97.529
4,FC(F)(F)c1ccnc(Sc2cccs2)n1 [CBK115245],112.215
5,NC(=O)Cn1cc(CN2CCC(c3ccccc3)C2)c2ccccc21 (centres unmarked) [CBK282803],73.802
6,O=C(CO/N=C\c1cccc([N+](=O)[O-])c1)Nc1ccccc1C(=O)O [CBK262051],113.409
7,O=C(C1CCCCC1)N1CCC(n2c(=O)oc3ccccc32)CC1 [CBK284348],95.2281
8,Cc1cc(C)n(CCCn2cncc2-c2cn(C)nc2C)n1 [CBK281772],96.7989
9,CCC12CN3CC(CC)(CN(C1)C3c1c(C)[nH]c3ccccc13)C2=O (centres unmarked) [CBK265547],104.188
10,OCCNc1nc(-c2ccccc2)cn2ccnc12 [CBK066379],52.3261
11,Clc1cccc(-c2nc(NCCCN3CCOCC3)c3ccccc3n2)c1 [CBK267309],82.8067
12,Cn1cc(N2CCN(C(=O)CCOc3ccccc3)CC2)cn1 [CBK305473],25.5283
13,CCc1cc(-c2n[nH]cc2-c2nc(C)cs2)c(O)cc1OC [CBK287934],10.5545
14,CCCS(=O)(=O)N1CCCC(Cc2ccccc2C)(C(=O)OCC)C1 (centres unmarked) [CBK307502],67.0684
15,NC(=O)C(=O)Nc1nc(-c2ccccc2)cs1 [CBK263005],103.2
16,O=C1CCCN1CCCNC(=O)N1CCN(Cc2ccccc2)CC1 [CBK155658],98.9423
17,O=C(O)c1ccccc1NS(=O)(=O)Cc1ccccc1[N+](=O)[O-] [CBK042373],101.921
18,Cc1c(C(=O)N2CCNC(=O)C2C(C)C)cnn1-c1ccc(Br)cc1 (centres unmarked) [CBK306472],37.4529
19,Cc1cc(Cl)c(S(=O)(=O)N(C)C)cc1OCC(=O)Nc1ccccc1 [CBK269705],80.0537
20,Cc1c(NC(=O)CCCC(=O)O)cccc1C(=O)O [CBK265525],115.622
21,Cc1cccc(Cn2nc(C)c(NC(=O)COc3ccccc3)c2C)c1 [CBK270007],115.721
22,CCc1nc2c(OCC=C(C)C)cccn2c1N(C)C(=O)c1cccc(OC)c1 [CBK147448],98.9421
23,CCOC(=O)c1c(NC(=O)CC2Nc3ccccc3NC2=O)sc(C)c1C (centres unmarked) [CBK263381],58.4022
24,Cc1c(CN(Cc2ccc(F)cc2)CC2CCCO2)cnn1C (centres unmarked) [CBK282589],99.9629
25,O=C(NCc1ccccc1Cl)C1CCCN(S(=O)(=O)c2ccccc2)C1 (centres unmarked) [CBK269086],112.817
26,O=C(c1ccc(OC(F)F)cc1)N1CCCCC1 [CBK074223],99.7335
27,CS(=O)(=O)c1ccc(C(=O)Nc2nccs2)cc1 [CBK255213],102.897

row,Structure (SMILES),% of control remaining
1,N/C(=N/c1ccccn1)C(F)(F)F [CBK021049],84.3624
2,O=C(c1cccnc1)N1CCN(CC2(c3ccccc3)CC2)CC1 [CBK282906],102.261
3,O=C(O)c1ccc(Oc2ccc([N+](=O)[O-])cc2)cc1C(=O)O [CBK260961],100.365
4,Cc1ccc(NC(=O)NCCC2=CCCCC2)cc1Cl [CBK044135],104.948
5,O=C(c1nccs1)C1CCN(C(=O)Cc2ccccc2Cl)CC1 [CBK284162],84.8017
6,COCCCOc1cc(N2CCCC2)ncn1 [CBK115896],94.833
7,CCC(CC)(CC(=O)Nc1ccc(N2CCCC2=O)c(C)c1)C(=O)O [CBK297881],98.9435
8,CCCC(=O)c1ccc(S(=O)(=O)N2CCCN(Cc3ccc(F)c(C(F)(F)F)c3)CC2)cc1 [CBK062918],60.308
9,Cc1ccc(N2CC(C(=O)NCCc3ccc(S(N)(=O)=O)cc3)CC2=O)cc1 (centres unmarked) [CBK267531],106.893
10,CCCCC(NC(=O)c1cc2ccccc2[nH]1)C(=O)O (centres unmarked) [CBK286647],91.6573
11,Cn1ccnc1C(NC(=O)c1ccncc1)c1ccc(F)c(F)c1 (centres unmarked) [CBK283808],60.803
12,CN1CCc2c(c(NCC3CCCO3)nc3[nH]nc(N)c23)C1 (centres unmarked) [CBK287955],97.5841
13,O=C(O)C1CCCCC1C(=O)Nc1ccc(S(=O)(=O)N2CCOCC2)cc1 (centres unmarked) [CBK268010],109.017
14,O=S(=O)(Nc1ccc(-c2nnn[nH]2)cc1)c1ccc(F)c(C(F)(F)F)c1 [CBK154759],113.472
15,Cc1cc(NC2CC3CCCC(C2)N3C)nc(N)n1 (centres unmarked) [CBK170333],47.41
16,CC(=O)N1CCC2(C/C=C/C[C@H]3CN(Cc4nccs4)CC[C@H]3NC(=O)CNC2=O)CC1 [CBK292169],89.3911
17,COc1ccc(CN2Cc3cccc(C(=O)O)c3C2=O)cc1OC [CBK291237],115.592
18,COCCNC(=O)c1nn(-c2cccc(C(C)C)c2)cc1O [CBK304884],80.8029
19,O=C(Nc1sc2c(c1C(=O)NCCc1ccccc1)CCC2)c1sc2ccccc2c1Cl [CBK266379],107.841
20,O=C1NCC2(C/C=C/CCOc3ccccc31)CCN(C(=O)c1ccncc1)CC2 [CBK292018],95.427
21,O=C(CN1CCCc2ccccc21)c1ccsc1 [CBK138333],102.206
22,Cc1ccc(-c2ccc(N3CCN(C(=O)c4ccco4)CC3)nc2)cc1C [CBK037775],67.8877
23,CSCCC(C(=O)O)n1c(S)nnc1-c1ccc2ccccc2n1 (centres unmarked) [CBK269230],92.8927
24,Cc1ccc(N2NC(=O)/C(=C/c3ccc(-c4ccc5c(c4)C(=O)NC5=O)o3)C2=O)cc1C [CBK262963],76.6415
25,OCCN(Cc1cccnc1)Cc1cccn1-c1ccc(F)cc1F [CBK283042],116.326
26,CN1CCN(NC(=O)CN(C)S(=O)(=O)c2cc(Cl)ccc2Cl)CC1 [CBK267366],109.071
